Measurements: PubChem BioAssay AID651582 (Sanford-Burnham Center for Chemical Genomics, 2012)
Some of the results follow. These are further read-outs of the screen, such as a control signal, another cell line or another target. No call is given for them. Most of these compounds were active or inconclusive in the main read-out, so they are no random draw.

Assay: inhibitors of triacylglycerol accumulation, primary screen, cell-based, uHTS, fluorescence, H9c2 (AID 651582)
Settings: H9c2 cells, Nile Red lipid (TAG) fluorescence; measured here:; at 12.5 µM; cells loaded with 200 µM oleic acid

Row | SMILES | DAPI nuclei signal change (viability), lower = more cytotoxic [%]
1 | CC(C)C(=O)NC(c1ccco1)c1ccc2cccnc2c1O (stereo not given) | -46
2 | COc1ccccc1-c1nnc(Nc2nc3c(OC)cccc3s2)o1 | -14
3 | CCOC(=O)c1c(C)[nH]c(C(=O)OCC(=O)NCCc2ccc(OCC)c(OCC)c2)c1C | -18.9
4 | O=C(NCc1ccc2c(c1)OCO2)c1cc(-c2ccccn2)nc2ccccc12 | -20.4
5 | CN(C)CC/C=C1\c2ccccc2Sc2cc(F)c(Cl)cc21 | -28.8
6 | COC(=O)C1=C(C)N(Cc2ccccc2)C(=NCc2cc(OC)c(OC)c(OC)c2)N[C@H]1c1ccc(Br)cc1 | -2.8
7 | CCN(CC)CCn1c2c(c(SCC(=O)Nc3ccc(C)c(F)c3)nc1=O)CCCC2 | -30.9
8 | COc1cc(NC(=O)c2cc3cccc(OC)c3o2)cc(C(=O)Nc2cccc(C(F)(F)F)c2)c1 | 15.2
9 | C=CC[C@@H](CC(=O)N(CCO)Cc1ccccc1)C(=O)N[C@@H](COC(=O)[C@@H](CC=C)Cc1ccc(F)cc1)Cc1ccccc1 | 3.33
10 | O=C(CCl)Nc1ccc(-c2ccccc2)cc1 | -27.8
11 | C=CCC[C@@H](Cc1ccc(F)cc1)C(=O)OC[C@@H](Cc1c[nH]c2ccccc12)NC(=O)[C@H](CC=C)CC(=O)N(CCO)Cc1ccccc1 | -0.326
12 | O=[N+]([O-])c1ccc(-c2nc(C(Cl)Cl)c3ccccc3n2)cc1 | -44.5
13 | OCCCNc1cc(-c2ccnc(Nc3cccc(Cl)c3)n2)ccn1 | -34.2
14 | CN(C)CCOc1ccc(-c2c(-c3ccccc3)sc3ccccc23)cc1 | -29.8
15 | Cc1nc(C(=O)Nc2ccccc2Cl)cc2c1[nH]c1ccccc12 | 0.373
16 | CN1CCN(c2cc3c(c4c2[nH]c2ccccc24)C(=O)CC(C)(C)C3)CC1 | 30.8
17 | COc1ccccc1NC(=O)N1CCC(c2nc3cc(C)c(C)cc3[nH]2)CC1 | -24.1
18 | COc1ccccc1[C@H]1C(c2cccc(C)c2)=NN(c2ccccc2)[C@@H]1CO | 98
19 | O=C1/C(=N\S(=O)(=O)c2cccs2)C([n+]2ccccc2)=C([O-])c2ccccc21 | -32.3
20 | Cc1cccc(Oc2nc(-c3ccccn3)nc3ccccc23)c1 | -31.3
21 | Cc1cccc(NC(=O)c2nc[nH]c2C(=O)NCCCCNC(=O)c2[nH]cnc2C(=O)Nc2cccc(C)c2)c1 | -23.2
22 | O=S(=O)(c1ccc(Cl)cc1)N1CCN(Cc2ccc(O)c3ncccc23)CC1 | -19.6
23 | CCOC(=O)[C@@H]1[C@H]2COc3ccc(Br)cc3[C@@H]2N2C(=O)N(c3ccc(C(F)(F)F)cc3)C(=O)[C@@]12C | 2.95

Row | SMILES | DAPI nuclei signal change (viability), lower = more cytotoxic [%]
24 | CCOc1ccc(OCc2ccc(C(=O)NN=Cc3ccc[nH]3)cc2)cc1 | -41.5
25 | O=c1c2c3nc4ccccc4nc3n(-c3ccc4c(c3)OCCO4)c2ncn1C1CCCC1 | -26.9
26 | C#CCOCCOCCOCCNc1nc(N2CCN(C(=O)CCCCCCCCCCNC(=O)[C@H](CCCCN)n3cc(C)nn3)CC2)nc(N2CCN(C(=O)CCCCCCCCCCNC(=O)[C@@H]([C@H](C)CC)n3cc(CCCCCN)nn3)CC2)n1 | -39.4
27 | C[C@H](CO)N1C[C@H](C)[C@@H](CN(C)Cc2ccc(-c3ccccc3)cc2)Oc2c(NC(=O)Cc3ccccc3)cccc2C1=O | -3.04
28 | O=C(CN(CC1CCCO1)S(=O)(=O)c1ccc(S(=O)(=O)NC2CC2)cc1)Nc1ccccc1 (stereo not given) | -1.45
29 | CCCCCc1cc(=O)oc2c(C(CCN(CC)CC)c3ccc(OC)cc3)c(OC)cc(OC)c12 (stereo not given) | -10.2
30 | CC(=O)Cn1ncc(Br)c(Br)c1=O | -28.1
31 | Cc1ccc(NCCN(C)C)c2c(=O)c3cc(O)ccc3sc12 | -38.2
32 | Cc1ccc(NC(=O)c2nc[nH]c2C(=O)NCCCCNC(=O)c2[nH]cnc2C(=O)Nc2ccc(C)cc2)cc1 | -2.68
33 | COc1ccc(CNC(=O)/C=C/c2ccc(OCCCF)cc2)cc1 | -1.93
34 | CCOC(=O)Cc1ccc(Nc2nc3cc(-c4sccc4C)sc3c(=O)n2C)cc1 | -36.4
35 | CC(C)(C)c1ccc(CN2N=Nc3ccccc3S2(=O)=O)cc1 | -41.6
36 | Cc1ccc(N2C(=O)C3CC(c4ccccc4)=C4C5C=CC(C6C(=O)N(c7ccc(C)cc7C)C(=O)C56)C4C3C2=O)c(C)c1 (stereo not given) | -5.52
37 | CC(C)(C)c1cc(NCc2ccccn2)n2ncc(-c3ccc(Cl)cc3)c2n1 | 94.3
38 | COC(=O)c1c(NC(NC(=O)C(C)(C)C)C(Cl)(Cl)Cl)sc2c1CCC2 (stereo not given) | 8.35
39 | Nc1c(C(=O)Nc2ccccc2)c2nc3ccccc3nc2n1-c1ccc(O)cc1 | 16.4
40 | CC(C)c1ccc(Nc2nc(N3CCOCC3)nc(N3CCOCC3)n2)cc1 | -16.7
41 | COc1ccc(-c2ccc3[nH]c4c(c3c2)CCN2C[C@@H]([C@H](C)OC(=O)Nc3cc(Cl)cc(Cl)c3)[C@@H](N(C)C(=O)Nc3cc(Cl)cc(Cl)c3)C[C@@H]42)cc1 | 6.14
42 | Cc1cccc(NC(=O)c2nc[nH]c2C(=O)NCCCCCCNC(=O)c2[nH]cnc2C(=O)Nc2cccc(C)c2)c1 | -18.7
43 | COc1ccc(C(=O)Nc2ccc(-c3nnn(CC(=O)NCc4ccco4)n3)cc2)cc1 | -14.2
44 | Cc1cc(C(=O)CSc2nnc(NCc3ccccc3)s2)c(C)n1C | -23.1
45 | CCCCCc1cc(=O)oc2c(C(CCN3CCCC(C)C3)c3ccc(N(C)C)cc3)c(OC)cc(OC)c12 (stereo not given) | -23.9
